Results on 86 compounds are retold here after PubChem BioAssay (NCI).

Values joined by “and” are separate entries in the source; they are usually repeats but may differ in a detail not shown here. Equal values may be shown once.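 Values below derive from 48-hour exposures of cells grown in 96-well plates, with endpoints linearly interpolated between the two concentrations bracketing the appropriate inhibition level. Abbreviation: GI50, concentration required for 50% inhibition of growth. TGI marks complete inhibition of growth.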 Peptide text beside a SMILES is read from it. * marks the point of attachment. Cbz = O=C(OCc1ccccc1)*

The test system of this experiment is NCI-H322M lung. Nature of the experiment: growth of human tumour cells (NCI), 48 h.
Take `COc1cc2c3c(n(CCCN(CCO)CCO)c(=O)c2cc1OC)-c1cc2c(cc1C3=O)OCO2`: the GI50 is 0.153 µM and the TGI came to 0.815 µM. Compound `CC1CCC(C(C)(C)c2ccccc2)C(=O)C1` (centres undefined) yielded a TGI of over 100 µM. Still for that read-out and setting: the same measure for `CC(=O)NC1CONC1=O` (centres undefined): over 100 µM. On the same count and under the same terms, the same measure for `O=C1c2c(Br)sc(Br)c2C(=O)C1(O)O`: over 100 µM. The same measure, in the same setting: the same measure for `CCCCC1Cc2cc(O)ccc2-c2nc3cc(O)ccc3n21` (centres undefined) (tested in a mixture with another compound): 78.7 µM; for `CCc1nc(Cl)c(Cl)c(Cl)n1`: over 100 µM; for `Cn1nnnc1SC(F)(F)c1nc2ccccc2o1`: over 100 µM. `Cc1ccc2c(c1)CC1(Cc3cccc(C)c3C1=O)C2=O` (centres undefined) had a TGI of over 100 µM.

Compound `CC(=O)OC(CCC1(C)OC1COc1ccc(CCNC(=O)C=C(C)C)cc1)C(C)(C)OC(C)=O` (centres undefined) had a TGI of over 100 µM.

Turning to `NC(=O)CNc1ccc([As]=[As]c2ccc(NCC(N)=O)cc2)cc1` (centres undefined), the GI50 was 16.4 µM and the TGI came to 51.2 µM. `Oc1c(Br)ccc2cccnc12`: the TGI was over 100 µM. For the compound `Oc1ccc(Oc2cnc3ccccc3n2)cc1`, the GI50 was over 100 µM and the TGI is over 100 µM.

For the compound `Cc1ccc(N2C(=O)N(c3ccc(C)cc3)C3(SC=NN3C)C2=O)cc1` (centres undefined), the TGI was over 100 µM. On the same count and under the same terms, with `COc1cc2c(cc1OC)C1Cc3cc(OC)c(OC)cc3N1CC2` (centres undefined) the figure was over 100 µM; with `CCCC(=O)[O-].CCCC(=O)[O-].NCCN.NCCN.[Co+3].[O-][Cl+3]([O-])([O-])[O-]`, over 100 µM.

In turn, `O=C1c2ccc3c4ccccc4n(-c4ccccc4)c3c2C(=O)N1c1ccc(Cl)cc1` registered a TGI of over 100 µM.

On to `CC(NC(=O)c1c(O)[nH]c(=S)[nH]c1=O)c1ccc([N+](=O)[O-])cc1` (centres undefined), for which the TGI is over 100 µM. Take `O=C(CCN1CCOCC1)Nc1cccc(-n2cc(-c3ccncc3)c(-c3ccc(Cl)c(O)c3)n2)c1`: the GI50 is 5.14 µM and the TGI came out at 18.5 µM. In turn, `c1ccc2c(c1)OCCOCCOc1ccccc1OCCO2` yielded a TGI of over 100 µM. Same read-out and setting: with `Nc1ccc(C2=N/C(=C\c3cccc(N)c3)C(=O)O2)cc1` the figure was over 100 µM.

`Cc1ccc2[c](c1)[Sn]([c]1ccccc1)([c]1ccccc1)[c]1cc(C)ccc1N2C`: the GI50 is 58.1 µM and the TGI was over 100 µM. For `Nc1c(C(=O)Nc2ccccc2Cl)sc2nc3c(cc12)C(=O)CCC3`, the GI50 is 3.02 µM and the TGI was over 100 µM. `Cc1c2ccc3ccccc3c2c[n+]2ccccc12` had a TGI of 31.9 µM. Same read-out and setting: with `COc1cc(/C=C/C(=O)Oc2ccccc2)ccc1C(=O)O/C=C/c1ccccc1` the figure was over 100 µM; with `CN1CCCOC(c2ccc(Cl)cc2)O1` (centres undefined), over 100 µM; with `C=C1CCCCCCCCC/C=C/1SCCCSC`, over 100 µM. The compound `Cc1ccc2c(c1-c1ccccc1)C(=O)OC2` displayed a TGI of over 100 µM. On the same count and under the same terms, with `CCOC(=O)CCC(NC(=O)OCc1ccccc1)C(=O)NC(CCC(=O)OCC)C(=O)OCC` (centres undefined) (Cbz-Glu(OEt)-Glu(OEt)-OEt; configuration not given here) the figure was over 100 µM; with `CN1CC=C(c2c(N)nc(N)[nH]c2=O)CC1`, over 100 µM; with `CCc1cccc(C)c1NC(=O)CC1C(=O)Nc2ccccc2S1=O` (centres undefined), over 100 µM. As for `COc1cc2c(cc1O)NC(=O)[C@@H]1CCCN1C2=O`, the TGI is over 100 µM.

With `CC1(C)N=C(N)N=C(N)N1c1cccc(OCCOc2cccc([N+](=O)[O-])c2)c1`, the GI50 was 5.22 µM and the TGI is over 100 µM. `COc1cc(-c2nnc3n2NC=C(C(=O)O)S3)cc(OC)c1OC`: the TGI is over 100 µM. Compound `COc1ccc2nc(-c3ccccc3)c(=O)[nH]c2c1` gave a TGI of over 100 µM. As for `C[P+](C)(C)c1ccccc1`, the TGI was over 100 µM. Same read-out and setting: the same measure for `O=C1C(Br)=CC2(C=C1Br)CCNC1=C2C(=O)c2ncccc2C1=O`: 2.85 µM; for `S=C1NCCN1C(=S)Nc1ccccc1`: over 100 µM. The compound `CN(C)CCNC(=O)c1cccc2[nH]c(-c3ccccn3)nc12` registered a TGI of over 100 µM. As to `CNC(C)[C@H]1CCC2C3CC=C4C(=O)[C@@H](NC(=O)C=C(C)C)CC[C@]4(C)C3CC[C@@]21C` (some centres undefined), the GI50 is 2.03 µM and the TGI came out at 5.4 µM.

For the compound `O=P1(Cc2ccccc2)N(Cc2ccccc2)[C@@H]2CCCC[C@H]2N1Cc1ccccc1`, the TGI is 24 µM. The same measure, in the same setting: with `CCOC(=O)CCC(NC(=O)c1ccc(NCc2ccc3nc(-c4ccccc4)c(Cl)nc3c2)cc1)C(=O)OCC` (centres undefined) the figure was over 100 µM. Regarding `CCOP(=O)(OCC)/C(C#N)=C/c1ccc(-c2cc(C(F)(F)F)cc(C(F)(F)F)c2)o1`, the TGI amounted to 26.2 µM. On to `CC1(C)OP(=O)(O)C=C1Sc1ccc([N+](=O)[O-])cc1[N+](=O)[O-]`, for which the TGI was over 100 µM.

`Cc1ccc(C)c(N2C(=O)C(=O)C(c3nc4ccccc4o3)/C(=N\NC(=O)c3ccccc3O)C2=O)c1` (centres undefined) had a TGI of over 100 µM. For the compound `COc1ccc(N2C(=O)C(=O)N(c3ccc(N=Nc4ccccc4)cc3)C2=S)cc1`, the TGI is 53.6 µM.

The compound `COC(=O)N[C@H](C(=O)NC(OCc1ccccc1)C1COC(C)(C)O1)C(C)O[Si](C)(C)C(C)(C)C` (some centres undefined) came in with a TGI of over 100 µM. With `O=Cc1ccc(-c2ccc(-c3ccc(CO)s3)o2)s1`, the TGI turned out to be 99.8 µM. On the same count and under the same terms, the same measure for `COc1cc2nc(-c3cccs3)nc(Cl)c2cc1OC`: over 100 µM.

On to `C=CCn1c(SCC(=O)Nc2ccc(C(=O)/C=C/c3cc(OC)c(OC)c(OC)c3)cc2)nnc1-c1ccc(OC)cc1`, for which the GI50 is 1.17 µM and the TGI is over 20.6 µM. The compound `C=CCC1(C)CCCCC1(O)CS(=O)c1ccccc1` (centres undefined) registered a TGI of over 100 µM. Consider `COc1ccc(/C(Cl)=C(\C#N)c2ccc(OC)c(OC)c2)cc1OC`, for which the TGI is over 100 µM. As for `Cc1sc2c(c1C)C(c1ccc(Cl)cc1)=N[C@@H](CC(=O)Nc1ccc(OCCOCCOCCOCCNc3cccc4c3C(=O)N(C3CCC(=O)NC3=O)C4=O)cc1)c1nnc(C)n1-2` (some centres undefined), the GI50 was under 0.0472 µM and the TGI was over 100 µM. The matching figures for `COc1cc(C(=O)O[C@H](C(N)=O)[C@]2(C)CO2)c2cccc(C)c2c1`: 0.409 µM and 3.49 µM. The like results for `COc1ccc2c(c1)C(C)Cc1c(ncnc1-n1cnc3ccccc31)N2C` (centres undefined) were, in that order, 0.749 µM and 25 µM.

With `CCCO[C@@H]1[C@@H](OC(C)=O)[C@@H](OC(C)=O)C(C)(C)/C=C/[C@H](C)C(=O)[C@@]2(OC(C)=O)C[C@@](C)(OC(C)=O)[C@H](OC(C)=O)[C@@H]2[C@H]2OC(=O)CC[C@@]12OC(=O)c1ccccc1`, the TGI is over 25 µM. In turn, `Cc1cc(C)nc(NC(P(=O)(O)O)P(=O)(O)O)n1` gave a TGI of over 100 µM. `NC(=O)c1cn(Cc2ccccc2)c(=O)n1Cc1ccccc1` yielded a TGI of over 100 µM. `O=C(Nc1ccc(Cl)cc1)Nc1nccs1`: the GI50 was 10.2 µM and the TGI was over 100 µM. Consider `C[n+]1c2ccccc2c(NC(CCCN=C(N)N)C(=O)O)c2ccccc21` (centres undefined), for which the TGI is over 100 µM.

`Cn1c(=S)c2[nH]c(SCCCc3ccccc3)nc2n(C)c1=O` registered a TGI of over 100 µM. Consider `CC(Cl)CN1c2ccccc2Sc2ccc(Cl)cc21` (centres undefined), for which the TGI is over 10 µM. Take `COc1ccc(-c2ccc(NNC(=O)c3ccc(F)cc3)nn2)cc1OC`: the GI50 is over 100 µM and the TGI was over 100 µM. Regarding `CN(C)CCNc1nc2ccccc2c2c(=O)c3cc(F)ccc3sc12`, the GI50 was 1.57 µM and the TGI came out at 2.92 µM. With `COC(=O)c1c[nH]cc1CCCCc1c[nH]cc1C(=O)OC`, the TGI is over 100 µM. Turning to `Cn1cc(-c2csc(-c3cn(C)c4ccc(F)cc34)n2)c2cnccc21`, the GI50 is 1.81 µM and the TGI stood at 3.23 µM. The like results for `CCOC(=O)c1sc(NC(=O)COc2cccc(/C=C3\CCc4cc(OC)ccc4C3=O)c2)nc1C` were, in that order, 31.2 µM and over 100 µM. Regarding `COC(=O)C(=O)CC(=O)c1cccc(OC)c1`, the TGI is over 100 µM. `CCCn1cnc2c(SCc3ccc(Cl)cc3)nc(N)nc21` yielded a TGI of 80.3 µM.

`O=c1[nH]nc(Cc2ccc(Cl)cc2)n1/N=C/c1cccs1` returned a TGI of over 100 µM.

Consider `CCCCCCCCCCCCCCCCCCC1=C(O)C(=O)C=C(OC)C1=O`, for which the TGI was over 100 µM. The same measure, in the same setting: the same measure for `CCC1CC(O)c2c(O)c3c(c(O)c2C1O)C(=O)c1cccc(O)c1C3=O` (centres undefined) (tested in a mixture with another compound): 0.132 µM and 0.124 µM.

As for `CN1C(NNC(=O)c2cccnc2)=NS(=O)(=O)c2cc(Cl)ccc21`, the GI50 was over 100 µM and the TGI is over 100 µM.

In the case of `O=C1CC2CCN(C(=O)c3ccccc3)CC2CCN1` (centres undefined), the TGI was over 100 µM. In turn, `Cc1ccnc2c1C(=O)C1=C(OC(C)(C)CC1O)C2=O` (centres undefined) returned a TGI of 23.5 µM. Take `C=C1C(O)C2C(=C(C)C13CC3)C(=O)C(C)(C)C2OC` (centres undefined): the GI50 is over 100 µM and the TGI was over 100 µM.

For `CC1(C)O[C@H]2OC(CO)C(N=[N+]=[N-])[C@H]2O1` (some centres undefined), the TGI is over 100 µM. Compound `C=CCCC1(C)CCCNC1=S` (centres undefined) gave a TGI of over 100 µM. Turning to `COc1cc(/C=C/C(=O)C(C(=O)/C=C/c2ccc(OC(=O)CCNC34CC5CC(CC(C5)C3)C4)c(OC)c2)C(=O)CCNC23CC4CC(CC(C4)C2)C3)ccc1OC(=O)CCNC12CC3CC(CC(C3)C1)C2` (centres undefined), the GI50 is 12.8 µM and the TGI stood at 26.2 µM. As for `COc1ccc(-c2noc(N)c2-c2cc(OC)c3c(c2)OCO3)cc1`, the GI50 is 6 µM and the TGI was over 100 µM. Take `O=C1/C(=C/N2N=C(c3ccc4ccccc4c3)CC2c2ccccc2O)SC(=S)N1c1cccnc1` (centres undefined): the GI50 is 4.91 µM and the TGI was over 100 µM.

For `O=C1C=CC(=CC=C2C=CN(CCCCCCCCCCC(=O)NCCCCCCCCCCCC(=O)O)C=C2)C=C1`, the TGI is over 100 µM. Still for that read-out and setting: with `Oc1ccc(/C=C/c2cc(O)cc3c2C(c2cc(O)cc(O)c2)C(c2ccc(O)c(O)c2)O3)cc1` (centres undefined) the figure was over 100 µM; with `COc1cc(/C=N\O[Si](C)(C)C(C)(C)C)ccc1O[Si](C)(C)C(C)(C)C`, over 100 µM. On to `O=C(N/N=C/c1ccc(O)cc1O)c1cccnc1`, for which the GI50 is 2.26 µM and the TGI came to 56.9 µM. Consider `CC(=O)c1c(N=[N+]=[N-])c2cccc3c2n(c1=O)CCC3`, for which the TGI was 52.8 µM. As to `O=[N+]([O-])c1c(F)c(F)c2c(c1F)N(CCCCCl)c1ccccc1S2`, the TGI was 19.7 µM.
